Assay results reported in PubChem BioAssay AID493208 (National Center for Advancing Translational Sciences (NCATS), 2011).
Screen size: about 44,000 compounds; about 340 (0.77%) were called active. Another 5% or so got no clear call; they are omitted. The call rests on the fitted dose curve; in most records, active means well fitted inhibition curve with a large enough effect; inconclusive means small, poorly fitted or top-dose-only effect; inactive means flat fitted curve, though single readings scatter. Some of the results follow.

Test: Acumen qHTS Assay for Inhibitors of the mTORC1 Signaling Pathway in MEF (Tsc2-/-, p53-/-) Cells: Sytravon; further: nearly all actives have a fitted effect of over 50% in size;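 on activity change, negative = inhibition: plate controls were DMSO for no effect and rapamycin for full effect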
Details: phospho-rpS6 immunofluorescence/PI, 24 h; series mostly up to 38.3 µM; activity change, negative = inhibition: at the top concentration
Method in brief: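 Immunofluorescence of rpS6 phosphorylation in Tsc2-/-, p53-/- MEFs after 24 h compound exposure, normalized to propidium iodide signal. Activity is expressed as % positive cells, thresholded with 7.5 nM rapamycin.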
Potency means the concentration at half of the fitted maximal effect.

Structure (SMILES)	activity change, negative = inhibition	Potency
Cc1ccc(N(CC(=O)N2CCN(c3cccc(Cl)c3)CC2)S(=O)(=O)c2c(C)noc2C)cc1	inactive: -8.29%	
Cc1ccc2cc3cc(C(=O)N4CCN(c5ccc(Cl)cc5)CC4)oc3nc2c1	inactive: -0.89%	
Cc1ccccc1NC(=O)c1c(NC(=O)c2ccccc2)sc2c1CCC2	inactive: 0.43%	
COc1ccc(-c2cn3nc(N4CCC(C(=O)Nc5ccccc5OC)CC4)sc3n2)cc1	inactive: -11%	
CCN(CC)C(=O)c1sc2c(c1C)c(=O)n(-c1ccccc1)c(=O)n2Cc1c(C)cc(C)cc1C	inactive: -0.628%	
CCOc1ccc(NC(=O)CC2C(=O)N(c3ccccc3)C(=O)N2CCc2cccs2)cc1 (stereo unspecified)	inactive: -0.291%	
CC(C)C(NS(=O)(=O)c1ccc2c(c1)oc(=O)n2C)C(=O)N1CCN(c2cccc(Cl)c2)CC1 (stereo unspecified)	inactive: -2.75%	
CCN(CC)C(=O)c1ccc2c(c1)N(Cc1c(F)cccc1Cl)C(=O)c1ccccc1S2	inactive: -0.443%	
Cc1ccn2c(Nc3c(C)cccc3C)c(-c3ccsc3)nc2c1	inactive: -22.9%	
COc1ccc(NC(=O)C(Cc2c[nH]c3ccccc23)NC(=O)OC(C)(C)C)cc1 (stereo unspecified)	inactive: -12.7%	
COC(=O)Cn1c(=NC(=O)c2ccc3c(c2)OCCO3)sc2ccccc21	inactive: -1.79%	
COc1ccc(N2CC(NC(=O)c3cccs3)CC2=O)cc1 (stereo unspecified)	inactive: -0.916%	
O=C(CSc1nc(=O)[nH]c2c1CCCC2)Nc1ccc(Cl)c(Cl)c1	inactive: -5.52%	
Cc1cc(N2CCN(C)CC2)nc2ccc(NC(=O)c3ccc(C(C)(C)C)cc3)cc12		active: 5.85 µM
CCN(CC)S(=O)(=O)c1ccc(NC(=O)c2cc3ccc4cccnc4c3[nH]2)cc1	inactive: -8.67%	
Cc1ccc(-n2nc(C(=O)Nc3ccc(F)cc3Cl)c(=O)n(C)c2=O)cc1	inactive: -0.347%	
CN(Cc1ccccc1)c1nnc(NC(=O)Nc2cccc(Br)c2)s1	inactive: -6.3%	
Cc1ccc(C(=O)n2nc(C)c(S(=O)(=O)N3CCCCCC3)c2C)cc1C	inactive: -1.45%	
CCc1nnc(NC(=O)CSc2nccn2Cc2ccc(C)cc2)s1	inactive: 2.3%	
COc1ccccc1NC(=O)CSc1nc(O)c(C/C=C/c2ccccc2)c(=O)[nH]1	inactive: -6.46%	
COc1ccc(Cn2c(=O)n(-c3ccc(F)c(Cl)c3)c(=O)c3c2c2cc(OC)ccc2n3C)cc1	inactive: 1.87%	

Structure (SMILES)	activity change, negative = inhibition	Potency
CCOC(=O)c1c(S(=O)(=O)N2CCC(C(=O)NCc3cccc(C)c3)CC2)c(C)n(C)c1C	inactive: -1.05%	
CCOc1cccc2sc(N3CCN(C(=O)c4ccc5c(c4)CCCC5)CC3)nc12	inactive: 2.63%	
Cc1ccc(OCc2nc(-c3ccc(C(=O)NCCc4ccc(Cl)cc4)cc3)oc2C)cc1	inactive: -0.345%	
CCCCc1ccc(NC(=O)c2cc(-c3ccc(C)c(F)c3)on2)cc1	inactive: 3.16%	
Cn1c(=O)c2sccc2n2c(CCC(=O)N3CCN(c4ccc(F)cc4)CC3)nnc12	inactive: -2.11%	
Cc1ccccc1CN1C(=O)c2ccccc2Sc2ccc(C(=O)NC3CCCCC3)cc21	inactive: 3.82%	
COc1ccc(NC(=O)c2nn(C)c3c2CS(=O)(=O)c2ccccc2-3)cc1Cl	inactive: 1.2%	
COc1ccc(C2=C(Nc3ccc(Br)c(C)c3)c3ccccc3C2=O)cc1	inactive: -29.1%	
CC(C)Nc1ccc(-c2nc(-c3ccncc3)no2)cc1[N+](=O)[O-]	inactive: 3.26%	
CCOC(=O)c1c(C)[nH]c(C)c1S(=O)(=O)N1CCCC(C(=O)N2CCN(c3ccccc3F)CC2)C1 (stereo unspecified)	inactive: -0.65%	
COc1ccc(N(CC(=O)NC(C)c2ccccc2)S(=O)(=O)c2c(C)nn(C)c2C)cc1 (stereo unspecified)	inactive: -0.557%	
COc1ccc(N2CCN(Cc3nc4c(c(=O)[nH]c(=O)n4C)n3Cc3ccc(C)cc3)CC2)cc1	inactive: 1.34%	
CCc1nn(CC(=O)N2CCN(c3cccc(OC)c3)CC2)c(=O)c2cc3occc3n12	inactive: 3.15%	
CC1CN(C(=O)CCC(=O)NCc2cccc(Cl)c2)c2ccccc2S1 (stereo unspecified)	inactive: -0.798%	
COc1ccccc1C(=O)N(Cc1nc(-c2cccc(C)c2)no1)C(C)C	inactive: -14.7%	
COc1ccc(S(=O)(=O)c2cnc3cc(OC)c(OC)cc3c2N2CCCC(C)C2)cc1 (stereo unspecified)	inactive: -3.2%	
O=C(O)c1ccc(Cn2cnc3cccnc32)cc1	inactive: 0%	
CC1CCN(CC2CCN(C(=O)NCc3ccc(F)cc3)CC2)CC1	inactive: -0.821%	
CCOc1ccc(C2C(C(=O)Nc3ccccc3)=C(C)Nc3nc(SCc4cccc(OC)c4)nn32)cc1 (stereo unspecified)	inactive: 0.688%	
Cc1ccc(/C=C/c2onc(C)c2S(=O)(=O)N2CCC(C(=O)N3CCN(c4cccc(C)c4)C(C)C3)CC2)cc1 (stereo unspecified)	inactive: -4.16%	
Cc1nn(C(C)C(=O)NC2CCC(C)CC2)c(=O)c2c1sc1ccccc12 (stereo unspecified)		active: 2.07 µM

Structure (SMILES)	activity change, negative = inhibition	Potency
CCc1ccc(OCc2nc(-c3ccc(-n4cccc4)cc3)no2)cc1	inactive: -17%	
CCc1nc(-c2cc(S(=O)(=O)N3CCN(c4ccc(OC)cc4)CC3)ccc2OC)no1	inactive: 0.33%	
O=S(=O)(NCCc1csc2nc(-c3ccccc3)nn12)c1cccs1	inactive: -0.512%	
CCOc1ccc(-c2cn3c(n2)sc2cc(C(=O)NCCc4ccc(OC)cc4OC)ccc23)cc1	inactive: -1.04%	
COc1cccc2c1cc1c(=O)n(CC(=O)N3CCN(c4cccc(C(F)(F)F)c4)CC3)nc(C)n12	inactive: -1.45%	
CCOc1ccccc1NC(=O)C(CC(C)C)NC(=O)C1CCC(C)CC1 (stereo unspecified)	inactive: 0.279%	
CCCCN(CC)C(=O)CSc1nc2n[nH]c(C)c2c(=N)n1-c1cccc(C)c1	inactive: -1.53%	
COc1ccc(-n2nc3ccc(NC(=O)c4ccc(C#N)cc4F)cc3n2)cc1Cl	inactive: -1.7%	
O=C(COc1ccccc1Cl)Nc1nnc(S(=O)(=O)N2CCCC2)s1	inactive: 4.95%	
Cc1ccc(NC(=O)CCc2c(C)nn(-c3ccc(N4CCOCC4)nn3)c2C)c(C)c1	inactive: 0.753%	
COc1ccc(Cn2c(CO)cnc2SCC(=O)Nc2ccc3c(c2)OCCO3)cc1	inactive: -15.8%	
COc1cccc(COC(=O)c2ccc(-c3nnn(Cc4cccc(OC)c4)n3)cc2)c1	inactive: -1.1%	
O=C(Nc1cccs1)Nc1ccc(F)cc1F	inactive: 1.3%	
O=C(Nc1cccc(C(F)(F)F)c1)c1cc(-c2ccc(Cl)s2)nc2ccccc12	inactive: 0.622%	
O=C(O)Cn1c(-c2cccs2)cc2cc(Cl)ccc21	inactive: 0.0701%	
COc1cccc2sc(NC(=O)CS(=O)(=O)c3ccc(C)cc3)nc12	inactive: -0.0458%	
CCOc1ccc(NC2SC(=O)N(Cc3ccccc3)C2=O)cc1 (stereo unspecified)	inactive: -6.86%	
COCCCNC(=O)Cn1nc(N2CCN(c3ccccc3)CC2)ccc1=O	inactive: 1.86%	
Cn1c(-n2cccc2)c(-c2c(-c3ccc(F)cc3)[nH]c3c2c(=O)n(C)c(=O)n3C)c(=O)n(C)c1=O	inactive: -4.6%	
